From ChEMBL document CHEMBL4888484, “Replenishing the malaria drug discovery pipeline: Screening and hit evaluation of the MMV Hit Generation Library 1 (HGL1) against asexual blood stage Plasmodium falciparum ,using a nano luciferase reporter read-out” (2022)
About 540 (0.36%) of roughly 150,000 compounds showed an effect of 50% or more. Some of the results follow.

The compounds below were run on Plasmodium falciparum (assay: Primary screen in NF54 nanoGlo assay, in single point, at 2uM, 72h; a lower Z score goes with more inhibition). Details: timepoint 72 hour.
Format: functional, Erythrocyte

| Compound | % Inhibition [%] | Z score |
| --- | --- | --- |
| O=C1CC[C@@H](CN(Cc2ccccn2)C(=O)c2cc3c(s2)CCCC3)N1 | 4 | -0.77 |
| CC(C(=O)N1CCNC(=O)CC1c1ccccc1)n1cccn1 (stereo unspecified) | -17 | 2.49 |
| Cn1nccc1CN1CCCCc2c(Cl)cccc21 | -8 | 0.76 |
| Cc1cc(OS(=O)(=O)c2cc(C)c(C)cc2C)c2ccccc2n1 | -41 | 4.77 |
| c1nc(N2CC[C@H](OCCN3CCCCC3)C2)c2ccsc2n1 | -12 | 0.98 |
| CCc1cc(CNC(=O)[C@H]2CCc3nnnn3CC2)on1 | -12 | 1.42 |
| CC(C)CCNC(=O)CN1C(=O)N[C@@]2(CCS(=O)(=O)c3ccc(F)cc32)C1=O | -15 | 1.42 |
| CC(C)c1cc(NC[C@@H](C(C)C)N(C)C)ncn1 | -5 | 0.77 |
| CCn1cc(CN(C(=O)c2cc(C3CC3)nc3c2c(C)nn3C)c2cccc(C)c2)c(C)n1 | 0 | 0.01 |
| CCOC(=O)N1CCN(C(=O)c2ccc(-c3ccc(Oc4ccccc4)cc3)nc2)CC1 | -8 | 1.23 |
| COc1ccc(N2CCN(c3ncccc3-c3nc(-c4ccc(C)cc4)no3)CC2)cc1 | -6 | 0.87 |
| Cc1nn(C)c(C)c1CNC(C1CC1)C(CO)C1CC1 (stereo unspecified) | -3 | 0.4 |
| CC1CC(C)CC2(C1)NC(=O)N(CC(O)CC(F)(F)F)C2=O (stereo unspecified) | -13 | 1.31 |
| C[C@@H](C(=O)Nc1ccn(C(C)(C)C(=O)O)n1)c1cccs1 | -1 | 0.18 |
| CS(=O)(=O)c1ccc(Br)c(S(=O)(=O)NCCn2ncnn2)c1 | -11 | 1.64 |
| Cc1nnc2cc(N3CCN(S(=O)(=O)c4ccc(Cl)cc4)CC3)cnn12 | 2 | -0.25 |
| O=C(O)c1cccc(Cn2nnn(C3CC3)c2=O)c1 | -13 | 1.31 |
| COC1(c2noc(-c3ccc(C)nc3C(C)C)n2)CCOCC1 | -9 | 0.94 |
| CCN(CCNC(=O)NC1CCCC1)C1CC1 | -10 | 1.39 |
| O=C1N[C@H]2C[C@@H](C(=O)NC[C@H]3O[C@H](CCOc4ccccc41)CC[C@@H]3O)N(C1CCC1)C2 | -6 | 1 |
| COc1ccccc1[C@H]1C[C@@H](C)CCN1CCN1CCNC1=O | 4 | -0.32 |
| Cc1oc(C)c(C(=O)N(C)c2ccccc2)c1C | -3 | 0.53 |
| CCc1oc(C(=O)N(C)Cc2cc(C3CC3)[nH]n2)cc1CN1CCCC1 | 13 | -1.62 |
